In PubChem BioAssay AID488969 (Vanderbilt High Throughput Screening Facility, 2010):
In all, about 110,000 compounds were measured (“z-score”: median about -0.1, highest 2% from about 2 on). The list shows a part of the results.

Each molecule was assayed against Metabotropic glutamate receptor 8 (Rattus norvegicus) (UniProt P70579) (assay: rat mGluR8 modulators via GIRK flux, primary screen, cell-based, thallium flux, HTS (AID 488969)). Settings: HEK293 rat mGluR8, GIRK (G protein-gated inwardly rectifying potassium channel) thallium flux, FluoZin2; at 10 µM; stronger effect = higher value; submaximal glutamate (EC20) added with thallium.
Chain of UniProt P70579 (P70579 whole entry, looked up): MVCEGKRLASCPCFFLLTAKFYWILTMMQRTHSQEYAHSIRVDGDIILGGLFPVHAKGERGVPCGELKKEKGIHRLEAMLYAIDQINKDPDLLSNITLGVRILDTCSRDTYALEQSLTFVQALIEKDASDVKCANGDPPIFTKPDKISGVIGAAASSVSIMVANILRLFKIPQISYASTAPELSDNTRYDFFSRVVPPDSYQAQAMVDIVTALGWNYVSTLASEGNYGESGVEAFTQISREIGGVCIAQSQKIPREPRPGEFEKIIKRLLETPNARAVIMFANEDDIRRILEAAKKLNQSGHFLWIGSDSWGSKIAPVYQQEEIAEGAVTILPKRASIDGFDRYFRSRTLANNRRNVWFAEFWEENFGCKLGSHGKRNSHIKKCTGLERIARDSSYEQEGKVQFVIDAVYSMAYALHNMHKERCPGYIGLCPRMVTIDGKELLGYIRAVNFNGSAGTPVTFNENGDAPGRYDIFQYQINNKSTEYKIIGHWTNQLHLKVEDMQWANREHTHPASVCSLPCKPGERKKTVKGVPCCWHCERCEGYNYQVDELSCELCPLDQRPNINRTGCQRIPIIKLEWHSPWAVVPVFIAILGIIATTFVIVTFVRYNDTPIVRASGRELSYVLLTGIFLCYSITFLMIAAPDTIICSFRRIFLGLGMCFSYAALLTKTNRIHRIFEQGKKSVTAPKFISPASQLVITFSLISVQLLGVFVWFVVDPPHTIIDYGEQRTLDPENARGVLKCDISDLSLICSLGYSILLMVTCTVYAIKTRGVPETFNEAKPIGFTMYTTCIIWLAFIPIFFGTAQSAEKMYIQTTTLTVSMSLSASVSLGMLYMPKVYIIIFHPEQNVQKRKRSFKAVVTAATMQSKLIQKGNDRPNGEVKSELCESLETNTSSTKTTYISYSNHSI
Work on `O=C(Nc1sc2c(c1-c1nc3ccccc3[nH]1)CCCC2)C1CC1` yielded a z-score of 0.0135. For `CCOC(=O)N1CCC(NS(=O)(=O)c2ccc3c(c2)CCN3C(C)=O)CC1`, the z-score was 0.165. `c1ccc(-c2n[nH]nc2-c2ccccc2)cc1` was tested, and the z-score was -1.09. `CC1CCc2sc(C(=O)N/N=C/c3ccc([N+](=O)[O-])cc3)cc2C1` (configuration not stated) showed a z-score of 0.00376. In the case of `C/C=C/C(=O)OCC(=O)Nc1ccc(F)cc1Cl`, the z-score is reported as -0.0749. For `O=C1C=C(c2ccccc2)OC2(CCCC2)O1`, the z-score was 0.389. `Cn1c(NCc2ccccc2)nc2c1c(=O)n(Cc1ccc(Br)cc1)c(=O)n2C` showed a z-score of -0.261. `O=C(CC1SC(=Nc2ccc(OC(F)F)cc2)N(CCC2=CCCCC2)C1=O)Nc1ccccc1F` (configuration not stated) gave a z-score of 0.0938. In the case of `CC(=O)C1=C(O)C(=O)N(CCc2c[nH]c3ccccc23)C1c1ccco1` (configuration not stated), the z-score is reported as -0.832. For `CCOc1cc(C=O)c(Br)cc1OC1CCCC1`, the z-score was 0.0863. Work on `COc1ccccc1N1CCN(/N=C/c2cc(OC)c(O)c(OC)c2)CC1` yielded a z-score of -0.158. `O=C(Nc1ccc(C(F)(F)F)cc1)c1cc(-c2cccnc2)nc2ccc(Br)cc12` was tested, and the z-score was -0.0141. For `COc1ccc(C(=O)Oc2cccnc2)cc1`, the z-score was -0.173. `CC(=O)N1Cc2ccccc2CC1C(=O)O` (configuration not stated) gave a z-score of -0.108. Molecule `CC1CCCCN1C(=O)c1ccc(S(=O)(=O)N2CCCCC2C)cc1` (configuration not stated) has a z-score of 0.00201. Molecule `Cc1nc(-c2cccc(NS(C)(=O)=O)c2)cs1` has a z-score of -0.0631. `O=C(O)C1CCCN1S(=O)(=O)c1cc(Cl)ccc1Cl` (configuration not stated) was tested, and the z-score was -1.31. With `CC(C)(O)C1=NOC(c2ccccc2)C1` (configuration not stated) the z-score was 0.128. `COc1ccccc1-c1cc(-c2ccc(C)cc2)nc(SCc2nnc(-c3ccccc3)o2)c1C#N` was tested, and the z-score was 0.695. Molecule `O=c1[nH]c2cc(Cl)c([N+](=O)[O-])nc2[nH]1` has a z-score of -0.134. `c1ccc(CNc2nc(-c3cccs3)nc3ccccc23)cc1` gave a z-score of 0.32. Molecule `O=C(Nc1ccc(N2CCOCC2)cc1)C1CCCCC1` has a z-score of -0.498. `O=C(CSc1ccc2nnc(-c3ccncc3)n2n1)Nc1ccccc1F` was tested, and the z-score was 0.149. With `CCOc1ccc2nnc(-c3ccc(Br)cc3)n2n1` the z-score was -0.27. `Cc1cccc(Nc2nc3c(S(=O)(=O)c4ccccc4)nnn3c3ccccc23)c1` gave a z-score of -0.166. Molecule `O=C(OCc1nnc(-c2ccccc2)o1)c1ccc2ccccc2n1` has a z-score of -0.761. Molecule `CCOC(=O)C(O)(CC(=O)Nc1cc(F)ccc1C)C(F)(F)F` (configuration not stated) has a z-score of -0.467. `O=C(Cn1cccc1C(=O)c1ccccc1)NCc1ccc2c(c1)OCO2` gave a z-score of 0.0786. `O=S(=O)(Nc1ccc(O)c(Sc2nc3ccccc3s2)c1)c1ccc(F)cc1` was tested, and the z-score was -0.298. `COc1cccc(C(=O)n2cnnc2N)c1OC` was tested, and the z-score was 0.0291. `Clc1ncccc1-c1nc2ccccc2n1Cc1ccccc1` was tested, and the z-score was -0.494. `C/C(=N/Oc1nc(C)cc(C)n1)c1ccc(F)cc1` showed a z-score of -0.115.
